Here are results for 96 molecules from ChEMBL document CHEMBL1156829.

Structures are written as SMILES. Where “and” joins values, the source holds several entries; their conditions need not be identical. Identical values can stand only once. Over roughly 5,400 compounds, “IFI” has its median near 2; the highest 2% begin near 22. The list shows a part of the results.

The experiment in a line: NOVARTIS: Inhibition Frequency Index (IFI) - the number of HTS assays where a compound showed > 50% inhibition/induction, expressed as a percentage of the number of assays in which the compound was tested. The experiment is classed as functional.
`COc1ccc(C=NNc2nc3cc(Cl)ccc3[nH]2)cc1OC`: the IFI amounted to 0%. Take `O=C(Nc1ccc(-c2nc3cc(NC(=O)c4cccc([N+](=O)[O-])c4)ccc3[nH]2)cc1)c1cccc([N+](=O)[O-])c1`: the IFI was 16.9% and 0%.

In the case of `CC(=O)OC1CCC2(C)C(CCC3C2CCC2(C)C3CC(O)C2(O)C(C)=O)C1` (stereo unspecified), the IFI is 0%. The molecule `COc1ccc(N(CCCNC(=O)CCl)C(=O)Nc2cccc(Cl)c2)cc1` came in with an IFI of 0.926%. Then `CCn1c(SCCCCNC(=O)c2cc([N+](=O)[O-])cc([N+](=O)[O-])c2)nc(-c2ccc(C)cc2)c1-c1ccc(C)cc1`, with 2.86%; and `Cc1ccc(-c2nc3cc(NC(=O)c4ccc([N+](=O)[O-])o4)ccc3o2)cc1Br`, with 18.2%. To `O=C(NCCc1ccc(-c2ccccc2)cc1)c1ccc(NS(=O)(=O)C(F)(F)F)cc1` belongs 2.78%; to `COc1ccc(C=NNc2cc(C)nc3ccccc23)cc1`, 15.4%. `CCN(CC)CCCN(Cc1cc2ccc(OC)cc2[nH]c1=O)C(=S)NCc1ccccc1` gave an IFI of 3.42%. In turn, `Oc1ccc(-c2ccccc2)cc1CNC1CCCCC1` came in with an IFI of 1.68%. Molecule `CC(C)NC(=O)c1cc(NC(=O)c2cccs2)ccc1N1CCc2ccccc2C1` showed an IFI of 3.12%.

In the case of `CC1=C(C=CC(C)C=NNC(=O)c2ccncc2)C(C)(C)CCC1` (stereo unspecified), the IFI was 0%. Molecule `CN(C)CC(C)(C)CNCc1cc(-c2ccccc2)ccc1O` gave an IFI of 1.74%. Take `CCN1/C(=C\c2sc3ccc(O)cc3[n+]2CC)C=Cc2ccccc21`: the IFI was found to be 23.1%. To `CC(=O)O[C@@H]1C(=O)[C@@]2(C)[C@H]([C@H](OC(=O)c3ccccc3)[C@@]3(O)C[C@H](OC(=O)[C@H](O)[C@@H](NC(=O)c4ccccc4)c4ccccc4)C(C)=C1C3(C)C)[C@]1(OC(C)=O)CO[C@@H]1C[C@@H]2O` belongs 11.8%. For the molecule `CCCCOc1ccc(C(=O)NCCOc2cccc(OC)c2)cc1`, the IFI is 1.51%.

Regarding `CC(C)CC(=O)NCCCCNc1ccnc2cc(Cl)ccc12`, the IFI is 1.85%. To `CCOC(=O)C1=C(C)NC2=C(C(=O)CC(C)(C)C2)C1c1ccc(Cl)cc1Cl` (stereo unspecified) belongs 5.81%; to `Cc1ccc(-n2c(=S)sc3c(=O)n(-c4ccccc4)c(SCC(=O)c4ccccc4)nc32)cc1C`, 0%. Then `Oc1ccc(-c2cccnc2)cc1CNC1C2CC3CC(C2)CC1C3` (stereo unspecified), with 0%. The molecule `CCOC(=O)C1=C(c2ccccc2)N=c2sc(=Cc3cccnc3)c(=O)n2C1c1c(OC)ccc2ccccc12` (stereo unspecified) returned an IFI of 0%. Then `O=C(COC(c1ccccc1)c1c(Cl)cncc1Cl)N1CCNCC1` (stereo unspecified), with 3.96%; and `Cc1ccc(-c2nc3cc(NC(=O)c4ccc(Cl)cc4Cl)ccc3o2)cc1`, with 0%. Then `CC1CCCCN1CCCNc1ncc(C(=O)NCCc2ccccc2)c(Nc2ccccc2)n1` (stereo unspecified), with 2.88%; and `CCCCNCCN1CCN(c2ccc3ccccc3c2)C[C@@H]1c1ccccc1`, with 7.32%; and `CCNC(=O)[C@@H]1C[C@@H](NC2C3CC4CC(C3)CC2C4)CN1Cc1cccc(OC)c1OC` (stereo partly specified), with 0.98%. Then `CCCS(=O)(=O)N1CCC(CO)(Cc2ccccc2C(F)(F)F)CC1`, with 0%; and `CCN(CC)CCCC(C)Nc1cc(/C=C/c2ccc([N+](=O)[O-])cc2)nc2cc(OC)ccc12` (stereo unspecified), with 3.61%; and `CCCCNC(=O)C(c1cccc(OC)c1)N1C(=O)c2cc(OCCc3cccc(OC)c3)ccc2NC(=O)C1CO` (stereo unspecified), with 1.16%. Regarding `Oc1ccc(-c2ccc(F)cc2)cc1CNCCN1CCOCC1`, the IFI was 0.855%. `CCOc1ccc(Nc2cc(C)nc3ccc(OCC)cc23)cc1` registered an IFI of 3.45%. To `OCCNc1nc(Nc2ccc(F)cc2)nc2ccccc12` belongs 2.94%.

The molecule `COc1ccc(CNC(=O)CCc2cn(Cc3cc(C)ccc3C)c3ccccc23)cc1OC` yielded an IFI of 0%. As to `COc1ccc2c(Cl)c(C(=O)Nc3cc(C)on3)sc2c1Cl`, the IFI was 0%. To `Cc1cc(NC(=O)/C=C/c2ccccc2Cl)ccc1Br` belongs 0%; to `CCc1ccc2[nH]c(=O)c(CN(CCO)C(=S)Nc3ccccc3CC)cc2c1`, 6.48%. To `COc1ccc(NC(=O)N2CCN(C(=O)c3nc(-c4ccccc4)nc(C)c3C(=O)OC(C)C)CC2C)cc1` (stereo unspecified) belongs 1.87%; to `OC1=C2C(=Nc3ccccc3SC2c2ccccc2)c2ccccc21` (stereo unspecified), 2.25%; to `CC1(C)N=C(N)N=C(N)N1c1ccc(Cl)cc1`, 9.63%. Then `COc1ccc(-c2cc(-c3ccc(C)cc3)[nH]n2)c(O)c1`, with 10.6%. `C=CCN1/C(=C/C=C/c2sc3ccccc3[n+]2CC=C)Sc2ccccc21`: the IFI came to 7.69%.

On to `CN1CCc2c(sc3nc(SCc4ccccc4)n(-c4ccccc4)c(=O)c23)C1`, for which the IFI was 10.2%. For the molecule `CCN(CC)c1cc2oc3cc(=[N+](CC)CC)ccc-3nc2c2ccccc12`, the IFI came out at 14.6%. To `CC1CCN(Cc2c(O)ccc3cc(-c4nc5ccccc5s4)c(=O)oc23)CC1` belongs 6.99%; to `CCOC(=O)c1c(CNCCN(CC)CC)n(C)c2cc(Br)c(O)cc12`, 0%; to `c1ccc(CCNc2cccc3ccccc23)cc1`, 1.79%. Then `Cc1cc(Nc2cccc3ccccc23)nc(Nc2cccc3ccccc23)n1`, with 0%; and `Cc1ccc2[nH]c3c(NCCc4ccccc4F)ncnc3c2c1`, with 14.6%; and `Cc1ccc(N=Nc2nc3ccccc3n2C)c(C)c1`, with 19.4%. For `O=C1NC(=S)N/C1=C/c1cccc(Oc2ccccc2)c1`, the IFI came out at 0%. To `COc1ccc(-n2nc(C(=O)NCC(=O)NCCCN3CC(C)CC(C)C3)c3ccccc3c2=O)cc1Cl` (stereo unspecified) belongs 0%; to `OC(COc1ccc(OCC(O)CN2CCN(C3c4ccccc4-c4ccccc43)CC2)cc1)CN1CCN(C2c3ccccc3-c3ccccc32)CC1` (stereo unspecified), 3.03%; to `COc1ccc(/C=C2/SC(=Nc3ccccc3)NC2=O)c(OC)c1`, 0%.

In turn, `COCCNC(=S)N(Cc1ccc(F)cc1)Cc1cc2ccc(C)c(C)c2[nH]c1=O` returned an IFI of 2.5%. Take `O=C1CN(C(=O)COC(=O)c2ccccc2NCCc2ccc(F)cc2)c2ccccc2N1`: the IFI worked out at 2.44%. To `O=[N+]([O-])c1ccc(S(=O)(=O)N2CCN(C(=S)NCC3CCCO3)CC2)cc1` (stereo unspecified) belongs 0%.

`Cc1ccccc1N=c1oc2ccc3ccccc3c2cc1-c1nc2ccccc2[nH]1` gave an IFI of 0%. As to `CCOC(=O)c1cnc2ccc(OCC)cc2c1NCCN(CC)CC`, the IFI was found to be 0%. As to `COC(=O)C1=C(C(=O)OC)SC(=C2C(=S)C(C)(C)N(C(=O)c3ccc([N+](=O)[O-])cc3)c3ccc(C)cc32)S1`, the IFI was determined as 0%. Molecule `CCOC(=O)C1=C(C)NC2=C(C(=O)CC(c3ccc(OC)c(OC)c3)C2)C1c1ccc([N+](=O)[O-])cc1` (stereo unspecified) gave an IFI of 2.38%.

Molecule `CCCCNC(=O)C(CC(C)C)N1C(=O)c2cc(NC(C)=O)ccc2NC(=O)[C@@H]1C` (stereo partly specified) came in with an IFI of 2.47%.

The molecule `CCCOc1ccc(C=Nc2ccc(S(=O)(=O)Nc3ccccn3)cc2)cc1` returned an IFI of 0%. `O=[N+]([O-])c1cccc(-c2ccc(C=NNc3nc4ccccc4[nH]3)o2)c1` came in with an IFI of 0%. Then `Cc1cc(NS(=O)(=O)c2ccc(N=Cc3ccc(C#N)cc3)cc2)no1`, with 7.69%. To `Cc1ccc(CN2CCN(Cc3ccccc3)CC2)o1` belongs 0%; to `S=C(NCc1ccco1)NC1CC2CCC(C1)N2Cc1ccccc1` (stereo unspecified), 1.24%. Molecule `COc1ccc(-n2c(SC)nc3sc4c(c3c2=O)CCN(Cc2ccccc2)C4)cc1` displayed an IFI of 7.41%.

For the molecule `CN(Cc1cc(-c2ccccc2)ccc1O)CC(O)c1ccccc1` (stereo unspecified), the IFI turned out to be 1%. On to `Cc1cc(Nc2ccc(OCc3ccccc3)cc2)nc2cc(O)ccc12`, for which the IFI amounted to 9.09%. To `CCN(CC)c1nc(-c2cccnc2)nc2ccccc12` belongs 0.752%. To `OCC(O)COc1cccc2ccccc12` (stereo unspecified) belongs 0.775%. To `CCCOc1ccc(C2Sc3ccccc3N=C3C2=C(O)c2ccccc23)cc1OC` (stereo unspecified) belongs 3.33%; to `CN(C)C(=O)CN(C)C(=O)c1cnc2scc(C(C)(C)C)n2c1=O`, 0%; to `CCCOC(=O)C1=C(C)NC2=C(C(=O)CC(c3ccc(OC)c(OC)c3)C2)C1c1ccc(Br)cc1` (stereo unspecified), 4.88%.

`O=C(Nn1c(SCc2cc(=O)n3ccccc3n2)nc2ccsc2c1=O)c1cccc(Br)c1` returned an IFI of 0%. With `CN(C)c1ccc(/C=C/c2nc(=O)c3ccccc3o2)cc1`, the IFI amounted to 5.88%. `COc1cc(NC(C)CCCN(Cc2ccc(N(C)C)cc2)S(=O)(=O)c2cccc3ccccc23)c2ncccc2c1` (stereo unspecified) came in with an IFI of 3.7%.

`COc1cc2c(cc1OC)C1Cc3ccc(OC)c(OC)c3CN1CC2` (stereo unspecified) registered an IFI of 0.68%.

For `CCOC(=O)c1cccc(N2C(N)=NC(N)=NC2(C)C)c1`, the IFI is 0%. Then `Nc1cccc(Oc2ccc3c(c2)C(=O)N(c2cccc(C(=O)O)c2)C3=O)c1`, with 0%. With `COc1ccc(-c2c[n+](CC(=O)c3ccccc3Cl)c3n2CCC3)cc1`, the IFI was determined as 2.5%.

`CCOc1c(Br)cc(C2C(C(=O)OC)=CN(C)C=C2C(=O)OC)cc1OC` had an IFI of 4.6%. To `CSc1cccc([C@@H]2C[C@H]3CN(c4ccccc4)C(=O)[C@]34CCCN24)c1` belongs 0%; to `CCN(CC)CCCC(C)Nc1cc(/C=C/c2ccccc2Cl)nc2cc(Cl)ccc12` (stereo unspecified), 8.06%. For the molecule `CCOC(=O)c1ccc(OCC2c3cc(OC)c(OC)cc3CCN2C(=O)c2ccc([N+](=O)[O-])cc2)cc1` (stereo unspecified), the IFI worked out at 0%. Then `COC(=O)C1=C(OC)C(=O)OC12C=CC(=O)C=C2`, with 20.4%. To `Fc1ccc(-c2c[n+](-c3ccccc3)c3n2CCS3)cc1` belongs 1.92%. `CCc1c(C#N)c(N)nc(SCC(=O)c2ccc(C)cc2C)c1C#N`: the IFI is 7.14%. Then `COc1ccc2nc(C)cc(Nc3ccc(Oc4ccc5ccccc5c4Cl)c(Cl)c3)c2c1`, with 0%; and `COc1ccc(CN2CSC3=C(C#N)C(c4cccc(OC)c4)CC(=O)N3C2)cc1` (stereo unspecified), with 0%; and `COc1ccccc1NC(=O)Cn1cnc2sc(C(=O)Nc3ccc(F)cc3)c(C)c2c1=O`, with 3.53%. Molecule `CCN(CC)C(CN1CCN(CC(C)C(=O)c2ccc(O)cc2)CC1)c1ccc(F)cc1` (stereo unspecified) yielded an IFI of 1.05%. Molecule `O=C(Nc1cccc(OC(=O)c2ccc([N+](=O)[O-])cc2)c1)c1ccc([N+](=O)[O-])cc1` showed an IFI of 0%.

The molecule `N=C(NN=Cc1ccc([N+](=O)[O-])cc1)NN=Cc1ccc([N+](=O)[O-])cc1` registered an IFI of 0%. Regarding `CCN1/C(=C/c2ccc3ccccc3[n+]2CC)Sc2sc3ccccc3c21`, the IFI is 18.3%. To `CC(C)(C)NC(=O)C(c1cccs1)N(CCCN1CCOCC1)C(=O)c1ccc(-c2ccccc2)[nH]1` (stereo unspecified) belongs 3.26%.
